PMC3169550
These are yes or no findings as the source states them, for the method shown. Binding seen in cells or lysates may run through a third protein. Some results given as binding are weak or reduced against the parent protein; the word gives no strength. Tags and fused reporters may be left off the sequences shown.

Chains of the proteins cited; added tags and fusions are not shown.
UniProt Q9QYP6: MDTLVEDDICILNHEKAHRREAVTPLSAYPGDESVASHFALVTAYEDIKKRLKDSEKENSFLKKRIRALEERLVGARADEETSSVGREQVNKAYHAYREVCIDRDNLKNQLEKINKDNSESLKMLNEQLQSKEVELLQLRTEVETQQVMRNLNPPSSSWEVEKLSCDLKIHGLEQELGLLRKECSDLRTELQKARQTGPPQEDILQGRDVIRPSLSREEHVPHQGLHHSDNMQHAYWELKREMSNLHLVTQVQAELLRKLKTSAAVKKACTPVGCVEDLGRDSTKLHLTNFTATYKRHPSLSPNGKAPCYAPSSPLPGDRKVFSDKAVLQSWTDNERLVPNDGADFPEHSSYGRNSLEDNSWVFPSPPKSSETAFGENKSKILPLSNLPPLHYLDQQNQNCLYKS
UniProt A2A9T0: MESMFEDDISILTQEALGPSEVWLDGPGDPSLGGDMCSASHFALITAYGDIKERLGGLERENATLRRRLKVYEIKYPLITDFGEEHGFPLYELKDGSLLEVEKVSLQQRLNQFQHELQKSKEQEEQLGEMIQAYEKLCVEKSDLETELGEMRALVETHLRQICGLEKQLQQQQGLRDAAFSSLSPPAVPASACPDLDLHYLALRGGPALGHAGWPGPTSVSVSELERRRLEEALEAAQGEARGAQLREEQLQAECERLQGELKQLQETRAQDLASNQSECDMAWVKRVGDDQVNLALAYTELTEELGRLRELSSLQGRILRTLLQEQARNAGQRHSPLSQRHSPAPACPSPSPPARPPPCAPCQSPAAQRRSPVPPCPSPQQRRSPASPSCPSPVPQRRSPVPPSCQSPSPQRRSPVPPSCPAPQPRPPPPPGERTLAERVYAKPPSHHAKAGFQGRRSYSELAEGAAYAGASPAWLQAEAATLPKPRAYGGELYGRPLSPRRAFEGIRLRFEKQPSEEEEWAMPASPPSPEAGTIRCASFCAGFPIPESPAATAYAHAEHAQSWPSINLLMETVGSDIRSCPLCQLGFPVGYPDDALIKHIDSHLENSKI

T1: C-terminus of TBK1 (amino acids 621–729) fused to GFP (murine) (UniProt Q9WUN2)
T1 sequence: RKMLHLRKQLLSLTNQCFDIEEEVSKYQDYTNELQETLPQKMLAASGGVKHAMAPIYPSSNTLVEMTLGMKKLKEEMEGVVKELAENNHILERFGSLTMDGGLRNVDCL

T2: Myc-tagged TBK1 L704A (murine) (UniProt Q9WUN2)
T2 sequence: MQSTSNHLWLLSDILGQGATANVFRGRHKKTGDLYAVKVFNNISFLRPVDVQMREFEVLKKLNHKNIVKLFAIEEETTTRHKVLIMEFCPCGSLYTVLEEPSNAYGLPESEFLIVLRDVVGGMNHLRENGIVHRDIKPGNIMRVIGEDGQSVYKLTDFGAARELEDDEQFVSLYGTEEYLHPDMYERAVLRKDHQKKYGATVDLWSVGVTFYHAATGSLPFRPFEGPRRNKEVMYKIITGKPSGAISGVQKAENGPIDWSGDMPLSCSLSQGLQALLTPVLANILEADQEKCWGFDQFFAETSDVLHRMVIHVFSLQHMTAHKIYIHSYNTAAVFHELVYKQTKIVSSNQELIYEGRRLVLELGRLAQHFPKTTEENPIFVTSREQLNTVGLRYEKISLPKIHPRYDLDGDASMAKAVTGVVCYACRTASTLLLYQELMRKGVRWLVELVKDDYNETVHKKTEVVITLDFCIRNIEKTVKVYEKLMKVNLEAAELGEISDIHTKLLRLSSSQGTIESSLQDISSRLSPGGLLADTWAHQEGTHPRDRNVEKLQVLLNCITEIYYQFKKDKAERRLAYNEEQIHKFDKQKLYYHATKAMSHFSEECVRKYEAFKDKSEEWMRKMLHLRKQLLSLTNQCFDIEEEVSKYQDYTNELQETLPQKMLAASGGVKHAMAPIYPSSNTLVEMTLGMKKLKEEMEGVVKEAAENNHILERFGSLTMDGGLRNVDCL

T3: Myc-tagged TBK1 E706K (murine) (UniProt Q9WUN2)
T3 sequence: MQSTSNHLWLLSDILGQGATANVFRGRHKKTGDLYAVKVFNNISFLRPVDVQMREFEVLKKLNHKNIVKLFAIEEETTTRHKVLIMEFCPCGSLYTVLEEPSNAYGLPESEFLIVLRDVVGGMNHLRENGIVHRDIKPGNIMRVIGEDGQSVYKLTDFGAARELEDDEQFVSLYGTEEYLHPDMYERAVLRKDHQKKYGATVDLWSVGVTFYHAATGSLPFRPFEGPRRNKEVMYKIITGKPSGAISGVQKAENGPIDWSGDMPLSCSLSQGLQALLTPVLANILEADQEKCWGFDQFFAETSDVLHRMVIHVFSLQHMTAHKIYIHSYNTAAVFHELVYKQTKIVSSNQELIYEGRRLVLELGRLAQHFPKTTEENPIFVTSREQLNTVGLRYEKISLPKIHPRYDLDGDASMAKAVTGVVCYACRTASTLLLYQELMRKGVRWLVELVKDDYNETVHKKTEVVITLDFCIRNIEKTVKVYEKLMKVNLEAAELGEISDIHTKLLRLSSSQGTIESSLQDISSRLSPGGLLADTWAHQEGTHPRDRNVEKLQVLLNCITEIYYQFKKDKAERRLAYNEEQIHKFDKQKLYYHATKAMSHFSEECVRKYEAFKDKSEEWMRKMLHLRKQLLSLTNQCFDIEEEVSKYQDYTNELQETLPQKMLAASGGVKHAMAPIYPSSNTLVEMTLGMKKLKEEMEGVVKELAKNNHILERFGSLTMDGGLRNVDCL

T4: Myc-tagged TBK1 wt (murine) (UniProt Q9WUN2)
T4 sequence: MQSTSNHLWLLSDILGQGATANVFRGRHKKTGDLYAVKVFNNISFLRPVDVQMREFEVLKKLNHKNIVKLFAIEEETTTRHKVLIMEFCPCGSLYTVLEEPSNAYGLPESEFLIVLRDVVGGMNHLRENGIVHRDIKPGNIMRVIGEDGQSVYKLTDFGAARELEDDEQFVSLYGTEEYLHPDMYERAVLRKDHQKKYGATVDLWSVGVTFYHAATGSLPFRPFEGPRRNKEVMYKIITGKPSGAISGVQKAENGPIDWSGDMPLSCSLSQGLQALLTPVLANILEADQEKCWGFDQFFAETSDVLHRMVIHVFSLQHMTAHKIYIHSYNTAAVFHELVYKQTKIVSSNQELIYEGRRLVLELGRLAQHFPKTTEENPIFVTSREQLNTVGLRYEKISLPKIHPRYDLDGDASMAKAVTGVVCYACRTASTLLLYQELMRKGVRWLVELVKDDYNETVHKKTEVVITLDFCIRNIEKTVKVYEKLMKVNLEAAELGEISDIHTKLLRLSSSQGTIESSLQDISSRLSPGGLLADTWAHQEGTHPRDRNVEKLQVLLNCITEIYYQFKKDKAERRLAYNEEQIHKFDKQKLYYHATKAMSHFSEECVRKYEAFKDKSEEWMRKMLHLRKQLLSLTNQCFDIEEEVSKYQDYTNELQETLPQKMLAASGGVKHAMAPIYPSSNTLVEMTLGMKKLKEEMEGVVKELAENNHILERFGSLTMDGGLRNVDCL

B1: V5-tagged TANK (protein, UniProt P70347 1-448)
chain: MSLKRHSLRRNACHLETRAGIPTILYSDATGQRGMDKNIGEQLNRAYEAFRQACMDRDSAVRELQQKQTENYEQRIREQQEQLSFQQNLIDRLKSQLLLVDSSRDNSYGYVPLLEDSDRRKNNLTLDEPHDKVKLGTLRDKQSKVRRQEVSSGKESAKGLNIPLHHERDNIEKTFWDLKEEFHRICLLAKAQKDHLSKLNIPDIATDTQCSVPIQCTDKTEKQEALFKPQAKDDINRGMSCVTAVTPRGLGRDEEDTSFESLSKFNVKFPPMDNDSIFLHSTPEAPSILAPATPETVCQDRFNMEVRDNPGNFVKTEETLFEIQGIDPITSAIQNLKTTDKTNPSNLRATCLPAGDHNVFYVNTFPLQDPPDAPFPSLDSPGKAVRGPQQPFWKPFLNQDTDLVVPSDSDSELLKPLVCEFCQELFPPSITSRGDFLRHLNTHFNGET

How the values were obtained:
[1] = target: T1, C-terminus of TBK1 (amino acids 621–729) fused to GFP (murine); experiment: co-IP; Myc-tagged TBK1 constructs coexpressed with V5-tagged adaptors in HEK293 cells; Frackelton buffer (10 mM Tris/HCl pH 7.5, 50 mM NaCl, 1% Triton X-100); anti-Myc agarose or anti-V5 agarose, 2 h at 4°C; immunoblotting with anti-Myc and anti-V5
[2] = target: T2, Myc-tagged TBK1 L704A (murine); experiment: as above
[3] = target: T3, Myc-tagged TBK1 E706K (murine); experiment: as above
[4] = target: T4, Myc-tagged TBK1 wt (murine); experiment: co-IP; competition: proteins expressed one by one in HEK293 cells, cell extracts mixed in stated volumes (one adaptor constant, the other increasing), anti-Myc agarose, immunoblotting with anti-Myc and anti-V5

Molecule | binding [1] | binding [2] | binding [3] | binding [4]
V5-tagged NAP1 (from UniProt Q9QYP6 1-405) | binds | no binding | binds | binds
V5-tagged Sintbad (from UniProt A2A9T0 1-611) | binds | no binding | binds | binds
B1 | binds | no binding | binds | binds
